{
  "source": "PubChem BioAssay AID488969",
  "about": "(Vanderbilt High Throughput Screening Facility, 2010)",
  "note": "Whole data set: some 110,000 compounds, median “z-score” near -0.1, cut for the highest 2% near 2. The list shows a part of the results. Activity calls are given as the source filed them.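 Rule for the calls: active = z-score in the third read window above 3 or below -3; inactive = the rest.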",
  "data": [
    {"target": "Metabotropic glutamate receptor 8 (Rattus norvegicus) (UniProt P70579)", "sequence (P70579 whole entry, looked up)": "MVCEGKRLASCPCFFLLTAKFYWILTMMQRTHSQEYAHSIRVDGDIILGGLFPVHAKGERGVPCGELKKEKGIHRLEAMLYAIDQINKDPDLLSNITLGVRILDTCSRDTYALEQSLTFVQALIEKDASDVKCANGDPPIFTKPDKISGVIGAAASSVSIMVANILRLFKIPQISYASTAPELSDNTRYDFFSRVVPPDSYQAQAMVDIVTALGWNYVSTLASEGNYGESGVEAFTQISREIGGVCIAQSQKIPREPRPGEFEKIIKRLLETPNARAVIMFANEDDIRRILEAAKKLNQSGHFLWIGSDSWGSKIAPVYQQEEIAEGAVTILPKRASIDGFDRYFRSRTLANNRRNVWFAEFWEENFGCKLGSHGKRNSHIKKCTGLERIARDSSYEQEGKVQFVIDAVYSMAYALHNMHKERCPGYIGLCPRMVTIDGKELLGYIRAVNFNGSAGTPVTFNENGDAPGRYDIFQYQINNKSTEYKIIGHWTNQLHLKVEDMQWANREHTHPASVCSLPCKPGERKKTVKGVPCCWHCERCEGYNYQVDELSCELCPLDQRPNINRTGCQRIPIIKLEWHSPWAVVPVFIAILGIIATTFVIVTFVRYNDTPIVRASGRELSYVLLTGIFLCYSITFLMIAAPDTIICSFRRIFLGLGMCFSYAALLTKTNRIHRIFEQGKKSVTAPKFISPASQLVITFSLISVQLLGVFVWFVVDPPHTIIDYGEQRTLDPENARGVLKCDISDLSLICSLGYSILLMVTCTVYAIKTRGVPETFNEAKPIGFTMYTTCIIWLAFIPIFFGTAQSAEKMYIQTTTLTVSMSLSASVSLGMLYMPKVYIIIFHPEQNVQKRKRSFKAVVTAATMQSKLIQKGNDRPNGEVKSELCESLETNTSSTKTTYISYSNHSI", "assay": "rat mGluR8 modulators via GIRK flux, primary screen, cell-based, thallium flux, HTS (AID 488969)", "conditions": "HEK293 rat mGluR8, GIRK (G protein-gated inwardly rectifying potassium channel) thallium flux, FluoZin2; at 10 µM; stronger effect = higher value; submaximal glutamate (EC20) added with thallium", "values": [
      {"molecule": "COCCCNC(=O)C1CCC(=O)N1Cc1ccccc1Cl", "note": "(stereo unspecified)", "z-score": -0.0555},
      {"molecule": "S=c1sc(SCCOc2ccccc2)nn1-c1ccccc1", "z-score": -0.317},
      {"molecule": "CCOC(=O)c1c(C)[nH]c(C)c1C(=O)CSc1nc(N)cc(=O)[nH]1", "z-score": -0.0689},
      {"molecule": "CCC(=O)Nc1cc(SCCO)cc([N+](=O)[O-])c1", "z-score": 0.0657},
      {"molecule": "CC(=O)OCC(=O)Nc1ccc(C(C)=O)cc1", "z-score": -0.127},
      {"molecule": "Cc1ccc(C(NC(=O)C2CCCCC2)c2c(O)ccc3ccccc23)cc1", "note": "(stereo unspecified)", "z-score": -0.571},
      {"molecule": "CCOC(=O)C1CCN(C(=O)c2ccccc2NC(=O)c2ccc(Cl)cc2)CC1", "z-score": 1.35},
      {"molecule": "COc1ccc(F)cc1S(=O)(=O)Nc1ccc(C)cc1", "z-score": 0.102},
      {"molecule": "CCOc1ncccc1C(=O)OCc1ccc(C(=O)OC)cc1", "z-score": -0.497},
      {"molecule": "CCOC(=O)c1c(C)[nH]c(C)c1C(=O)COC(=O)/C=C/c1cccc(C(F)(F)F)c1", "z-score": 0.171},
      {"molecule": "O=C(NCc1nnc(SCC(=O)N2CCCC2)o1)c1ccccc1F", "z-score": -0.183},
      {"molecule": "CCCCn1c(SCc2cccc([N+](=O)[O-])c2)nc2ccsc2c1=O", "z-score": -0.383},
      {"molecule": "Cc1sc2ncnc(NCC(C)(C)N3CCOCC3)c2c1C", "z-score": 0.226},
      {"molecule": "COC(=O)c1cc(OC)c(OC)cc1NC(=S)N1CCCCC1", "z-score": -0.386},
      {"molecule": "Cc1cc(N2CCN(c3ccc(F)cc3)CC2)nc2cc(O)ccc12", "z-score": -0.13},
      {"molecule": "CCN1CCN(C(=O)c2ccc(NS(=O)(=O)c3ccccc3)cc2)CC1", "z-score": 0.343},
      {"molecule": "COc1ccc(C2CC3CC(c4ccccc4)N2O3)cc1", "note": "(stereo unspecified)", "z-score": -0.085},
      {"molecule": "C(=N\\n1cnnc1)/c1cccnc1", "z-score": 0.513},
      {"molecule": "CCN1CCn2c3c(c4cc(C)ccc42)CCCC31", "note": "(stereo unspecified)", "z-score": 0.485},
      {"molecule": "CCN1CCN(C(=O)C2(NC(=O)Nc3ccccc3Cl)CCCCC2)CC1", "z-score": 0.404},
      {"molecule": "Cc1ccc(S(=O)(=O)NCCc2ccc(S(N)(=O)=O)cc2)cc1", "z-score": 0.0652},
      {"molecule": "CCCN(CC1CC1)C(=O)COC(=O)c1ccc(CNS(=O)(=O)c2ccc(F)c(Cl)c2)cc1", "z-score": -0.223},
      {"molecule": "CC(=O)Nc1ccc(C2=NN(CC#N)C(=O)SC2)cc1", "z-score": -0.0818},
      {"molecule": "Cc1cc(=O)[nH]c(SCC(=O)Nc2ccccc2C#N)c1C#N", "z-score": 0.21},
      {"molecule": "Nc1nnc(SCC(=O)c2ccc3ccccc3c2)s1", "z-score": -0.158},
      {"molecule": "CC(C)(C)c1ccccc1OCCOCCNCc1ccccc1", "z-score": -0.673},
      {"molecule": "CCCCOc1ccc(C2C(=O)N(C3CCCCC3)CC(=O)N2CC2CCCO2)cc1", "note": "(stereo unspecified)", "z-score": -0.206},
      {"molecule": "CCOC(=O)c1cnn(-c2ccccc2)c1-n1cccc1C(=O)C(=O)Nc1ccc(OC)cc1", "z-score": -0.189},
      {"molecule": "CCOC(=O)c1c(C)[nH]c(C)c1C(=O)COC(=O)c1ccc(Cl)c(S(=O)(=O)NCc2ccccc2)c1", "z-score": -0.142},
      {"molecule": "CCOc1ccc(NC(=O)/C=C/c2ccccc2)c([N+](=O)[O-])c1", "z-score": -2.4},
      {"molecule": "COc1cc(/C=C(\\C#N)c2ccccn2)ccc1OCc1ccccc1Cl", "z-score": -0.253},
      {"molecule": "CCOc1ccc(CNC(=O)c2ccc(Sc3ccc(Cl)cc3)c(NC(C)=O)c2)cc1", "z-score": -0.0412},
      {"molecule": "Cc1ccc(S(=O)(=O)N(CC(=O)N/N=C/c2cccc3c2OCCO3)c2ccccc2F)cc1", "z-score": -0.291},
      {"molecule": "Cc1ccc(C(=O)N/N=C/c2ccc([N+](=O)[O-])s2)cc1", "z-score": -0.176},
      {"molecule": "Cc1cc(C)nc(NS(=O)(=O)c2ccc(NC(=O)c3cccs3)cc2)n1", "z-score": -0.176},
      {"molecule": "CCN(CC)CCNC(CC(=O)Nc1ccc(Cl)cc1Cl)C(=O)O", "note": "(stereo unspecified)", "z-score": 0.968},
      {"molecule": "COc1cccc(/C=N/NC(=O)CSc2nnc(C)n2-c2ccccc2)c1OC", "z-score": -0.0834},
      {"molecule": "Cc1cc(O)c(C(C)C)cc1NC1=NS(=O)(=O)c2ccccc21", "z-score": -0.941},
      {"molecule": "CC(=O)OC(C(=O)NC1CCCCC1)c1ccc(C#N)cc1", "note": "(stereo unspecified)", "z-score": -0.383},
      {"molecule": "O=c1cc(-c2ccccc2)c2ccccc2[nH]1", "z-score": 0.953},
      {"molecule": "CC(=O)Oc1ccc(-c2cccc(C(=O)NCC(=O)O)c2)cc1", "z-score": -0.762},
      {"molecule": "Cn1c(N)c(C(=O)COC(=O)CN2C(=O)c3ccccc3C2=O)c(=O)n(C)c1=O", "z-score": 0.0178},
      {"molecule": "COc1ccc(CNC(=O)C(c2ccc(C)o2)N(Cc2cccs2)C(=O)Cc2cccs2)cc1", "note": "(stereo unspecified)", "z-score": -0.248},
      {"molecule": "O=S(=O)(c1ccc2ccccc2c1)N1CCN(S(=O)(=O)N2CCOCC2)CC1", "z-score": 0.17},
      {"molecule": "O=C1CCCc2c1cc(-c1ccccc1)n2-c1ccc(O)cc1", "z-score": -0.123},
      {"molecule": "CCOC(=O)C(C)Sc1nnc(CSc2nc3nc(C)cc(C)n3n2)o1", "note": "(stereo unspecified)", "z-score": -0.804},
      {"molecule": "COc1ccc(Cl)cc1S(=O)(=O)N1CCN(C)CC1", "z-score": 0.36},
      {"molecule": "COCCCNC(=O)CCn1c(=O)c2ccccc2n(CC(=O)Nc2ccc(C)cc2C)c1=O", "z-score": -0.836},
      {"molecule": "COc1ccc(-c2ccnc(-c3ccc(OCCCF)cc3)n2)cc1", "z-score": -0.124},
      {"molecule": "CCS(=O)(=O)Nc1ccc(NC(C)=O)cc1", "z-score": -0.147},
      {"molecule": "COc1ccc(-c2nn(CCC(=O)O)cc2/C=C2\\SC(N)=NC2=O)cc1OC", "z-score": -0.128},
      {"molecule": "Cc1sc2nc(COC(=O)c3ccc(N4CCCC4)c([N+](=O)[O-])c3)[nH]c(=O)c2c1C", "z-score": -0.219},
      {"molecule": "O=C(NC1CCCC1)c1ncn[nH]1", "z-score": -0.254},
      {"molecule": "CC(C)COc1ccc(C(=O)Nc2ccc(NC(=O)c3ccco3)c(Cl)c2)cc1", "z-score": -0.121},
      {"molecule": "CCCCC(=O)Nc1ncc2c(n1)CC(C)(C)CC2=O", "z-score": "active: 6.64"},
      {"molecule": "Cc1nn(-c2ccccc2)c(N)c1Sc1cccc([N+](=O)[O-])c1", "z-score": -0.774},
      {"molecule": "COc1ccc(/C=C/c2nnc(NC(=O)CSc3ccc(Cl)cc3)s2)cc1", "z-score": 0.0185},
      {"molecule": "CN1CCN(CCCn2cnc3c(=O)oc4ccccc4c32)CC1", "z-score": 1.1},
      {"molecule": "CCN(CC)c1nc(N(CC)CC)[nH]c(=O)n1", "z-score": 1.39},
      {"molecule": "O=C1CC(Sc2nnnn2-c2ccccc2)C(=O)N1c1cccc(Cl)c1", "note": "(stereo unspecified)", "z-score": 0.0139},
      {"molecule": "Cc1nnc(SCc2ccccc2)n1CC1CCCO1", "note": "(stereo unspecified)", "z-score": 0.263},
      {"molecule": "CCC(=O)Nc1ccc(C(=O)NNC(=O)COc2cccc(C)c2)cc1", "z-score": -0.262},
      {"molecule": "O=C1N=C(N2CCCCC2)SC1=C1CCCCC1", "z-score": -0.28},
      {"molecule": "O=C(NCCN1CCOCC1)C1CCN(c2nc3ccccc3o2)CC1", "z-score": 0.015},
      {"molecule": "CCOC(=O)c1sc(Nc2cccc(C)c2C)nc1C", "z-score": -0.0747},
      {"molecule": "Cc1ccnc(NC(=O)CS(=O)(=O)Cc2ccccc2)c1", "z-score": -0.174},
      {"molecule": "Cc1ccc(NC(=O)c2cc(-c3ccco3)on2)cc1", "z-score": 0.297},
      {"molecule": "COc1ccc(N/C(C)=C2/C(=O)C(=O)N(CCO)C2c2ccc(Br)cc2)cc1", "note": "(stereo unspecified)", "z-score": "active: 5.05"},
      {"molecule": "Cc1ccc(C#N)c(SCc2ccccc2[N+](=O)[O-])n1", "z-score": -0.24},
      {"molecule": "C/C(=N/OC(=O)c1ccc(F)cc1)c1ccc(C)cc1", "z-score": -0.0721},
      {"molecule": "O=C(Nc1cccc2ccccc12)c1ccc(Br)o1", "z-score": 0.327}
    ]}
  ]
}
